Test results as given in patent EP4714970A1 (Akeso Biopharma Co., Ltd., dated 2026).
Where two headings read alike, the source gives them in different places.

What was measured:
[1] = biological target: T1, human LAG3-mG1Fc (human; mouse, UniProt P18627 23-450, limits assumed); test: ELISA, huLAG3-mG1Fc coated 2 ug/mL
T1 construct: Made by Akeso; also called huLAG3-mG1Fc; HuLAG3-mG1Fc; not shown: mouse IgG1 Fc (mG1Fc); limits not readable
T1 sequence (looked up): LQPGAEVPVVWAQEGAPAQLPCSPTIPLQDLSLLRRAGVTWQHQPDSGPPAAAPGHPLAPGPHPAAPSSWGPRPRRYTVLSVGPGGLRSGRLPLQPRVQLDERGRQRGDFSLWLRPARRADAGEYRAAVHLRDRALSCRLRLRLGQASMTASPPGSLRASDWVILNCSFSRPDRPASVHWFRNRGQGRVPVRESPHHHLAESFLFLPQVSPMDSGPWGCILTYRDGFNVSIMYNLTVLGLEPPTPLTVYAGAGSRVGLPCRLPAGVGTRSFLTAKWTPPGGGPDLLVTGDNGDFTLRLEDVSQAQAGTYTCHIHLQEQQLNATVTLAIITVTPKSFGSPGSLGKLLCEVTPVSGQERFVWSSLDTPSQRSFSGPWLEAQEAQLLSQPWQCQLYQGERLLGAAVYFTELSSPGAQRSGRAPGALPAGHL

[2] = biological target: T2, hNT5E(1-552)-His (human, UniProt P21589 27-552); test: ELISA, NT5E-His coated 1 ug/mL
T2 construct: also called NT5E-His; not shown: His tag
T2 sequence (looked up): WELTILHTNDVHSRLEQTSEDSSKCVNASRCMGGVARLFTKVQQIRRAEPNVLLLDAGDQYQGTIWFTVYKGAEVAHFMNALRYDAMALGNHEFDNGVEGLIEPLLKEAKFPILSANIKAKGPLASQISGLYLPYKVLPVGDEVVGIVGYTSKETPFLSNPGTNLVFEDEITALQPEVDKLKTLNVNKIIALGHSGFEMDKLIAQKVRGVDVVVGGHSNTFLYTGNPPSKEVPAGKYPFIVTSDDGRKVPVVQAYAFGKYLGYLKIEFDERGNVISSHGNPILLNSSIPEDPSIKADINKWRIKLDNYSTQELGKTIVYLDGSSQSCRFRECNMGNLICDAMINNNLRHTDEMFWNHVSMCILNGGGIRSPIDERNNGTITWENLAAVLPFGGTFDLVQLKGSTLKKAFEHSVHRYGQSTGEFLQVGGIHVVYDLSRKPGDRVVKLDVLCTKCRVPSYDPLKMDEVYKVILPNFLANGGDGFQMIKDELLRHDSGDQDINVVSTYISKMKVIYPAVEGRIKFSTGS

[3] = biological target: T2, hNT5E(1-552)-His; test: BLI (Fortebio), antigen on HIS1K sensor, antibody in solution, 37 C, 1:1 fit
[4] = biological target: T1, human LAG3-mG1Fc; test: BLI (Fortebio), antigen on AMC sensor, antibody in solution, 30 C, 1:1 fit
[5] = biological target: T1, human LAG3-mG1Fc; test: ELISA, huLAG3-mG1Fc coated 2 ug/mL; remark: listed apart in the source
[6] = biological target: T2, hNT5E(1-552)-His; test: ELISA, NT5E-His coated 1 ug/mL; remark: listed apart in the source
[7] = biological target: T3, CD73 on U87-MG cell membrane surface (UniProt P21589 27-549, limits assumed); test: cell-based or functional assay
T3 sequence (looked up): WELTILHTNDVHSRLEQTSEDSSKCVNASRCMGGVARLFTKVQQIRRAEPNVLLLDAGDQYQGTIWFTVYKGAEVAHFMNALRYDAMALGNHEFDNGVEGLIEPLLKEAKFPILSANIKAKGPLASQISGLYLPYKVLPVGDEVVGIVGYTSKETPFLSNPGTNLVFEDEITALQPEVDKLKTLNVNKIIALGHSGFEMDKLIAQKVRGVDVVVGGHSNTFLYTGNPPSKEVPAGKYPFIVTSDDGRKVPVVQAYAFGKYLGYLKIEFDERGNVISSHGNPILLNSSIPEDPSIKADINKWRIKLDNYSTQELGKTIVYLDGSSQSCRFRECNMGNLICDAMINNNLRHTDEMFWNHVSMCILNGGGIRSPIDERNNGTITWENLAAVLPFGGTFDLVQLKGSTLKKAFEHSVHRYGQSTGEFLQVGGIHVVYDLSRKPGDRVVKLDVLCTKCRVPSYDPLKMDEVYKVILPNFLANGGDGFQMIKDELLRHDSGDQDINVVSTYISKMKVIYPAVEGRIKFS

Row | Binder | EC50 [1] [nM] | EC50 [2] [nM] | Kd [3] [nM] | Maximum signal height of analyte (nm) [3] [nm] | S E (kdis) [3] [s⁻¹] | S E (kon) [3] [M⁻¹ s⁻¹] | koff [3] [s⁻¹] | kon [3] [M⁻¹ s⁻¹] | Kd [4] [nM] | Maximum signal height of analyte (nm) [4] [nm] | S E (kdis) [4] [s⁻¹] | S E (kon) [4] [M⁻¹ s⁻¹] | koff [4] [s⁻¹] | kon [4] [M⁻¹ s⁻¹] | EC50 [5] [nM] | EC50 [6] [nM] | EC50 (nM), inhibition of CD73 enzyme activity on U87-MG cells [7] [nM] | Maximum inhibition rate (%) of CD73 enzyme activity on U87-MG cells [7] [%]
1 | NTLAV7(hG1TM) (bispecific antibody, human IgG1, kappa, IgG-scFv (Morrison format)) heavy: QVQLVQSGAEVVKPGASVKVSCKASGYSFTGYTMNWVRQAPGQNLEWIGLINPYNAGTSYNQKFQGKVTLTVDKSTSTAYMELSSLRSEDTAVYYCARSEYRYGGDYFDYWGQGTTLTVSSASTKGPSVFPLAPSSKSTSGGTAALGCLVKDYFPEPVTVSWNSGALTSGVHTFPAVLQSSGLYSLSSVVTVPSSSLGTQTYICNVNHKPSNTKVDKKV[letters of human IgG1 Fc with L234A L235A G237A (EU numbers) omitted]GGGGSGGGGSGGGGSQVQLQQWGAGLLKPSETLSLTCAVYGGSISDYYWNWIRQPPGKGLEWIGEINYRGTTNSNPSLKSRVTLSLDTSKNQFSLKLRSVTAADTAVYYCAFGYSDYEYDWFDPWGQGTLVTVSSGGGGSGGGGSGGGGSGGGGSEIVLTQSPATLSLSPGERATLSCRASQTISSYLAWYQQKPGQAPRLLIYDASNRATGIPARFSGSGSGTDFTLTISSLEPEDFAVYYCQQRSNWPITFGQGTNLEIK light: DIVMTQSPSSLAVSVGERVTISCKSSQSLLNSSNQKNYLAWYQQKPGQAPKLLIYFASTRESGVPDRFSGSGSGTDFTLTISSLQAEDVAVYYCQQHYDTPYTFGGGTKLEIKRTVAAPSVFIFPPSDEQLKSGTASVVCLLNNFYPREAKVQWKVDNALQSGNSQESVTEQDSKDSTYSLSSTLTLSKADYEKHKVYACEVTHQGLSSPVTKSFNRGEC | 0.158 | 0.036 | 0.322 | 0.227 | 3.15e-06 | 1390 | 0.000125 | 388000 | 1.04 | 0.817 | 3.11e-06 | 1680 | 0.000309 | 298000 | – | – | – | –
2 | LA5EV1(hG1TM) (bispecific antibody, human IgG1, kappa, IgG-scFv (Morrison format), scFv at the C-terminus of each heavy chain; Tested as the hG1TM form (L234A, L235A, G237A); also called LASEV1; LASEV1(hG1TM)) heavy: QVQLQQWGAGLLKPSETLSLTCAVYGGSISDYYWNWIRQPPGKGLEWIGEINYRGTTNSNPSLKSRVTLSLDTSKNQFSLKLRSVTAADTAVYYCAFGYSDYEYDWFDPWGQGTLVTVSSASTKGPSVFPLAPSSKSTSGGTAALGCLVKDYFPEPVTVSWNSGALTSGVHTFPAVLQSSGLYSLSSVVTVPSSSLGTQTYICNVNHKPSNTKVDKKV[letters of human IgG1 Fc with L234A L235A G237A (EU numbers) omitted]GGGGSGGGGSGGGGSGGGGSQVQLVQSGAEVVKPGASVKVSCKASGYSFTGYTMNWVRQAPGQNLEWIGLINPYNAGTSYNQKFQGKVTLTVDKSTSTAYMELSSLRSEDTAVYYCARSEYRYGGDYFDYWGQGTTLTVSSGGGGSGGGGSGGGGSGGGGSDIVMTQSPSSLAVSVGERVTISCKSSQSLLNSSNQKNYLAWYQQKPGQAPKLLIYFASTRESGVPDRFSGSGSGTDFTLTISSLQAEDVAVYYCQQHYDTPYTFGGGTKLEIKR light: EIVLTQSPATLSLSPGERATLSCRASQTISSYLAWYQQKPGQAPRLLIYDASNRATGIPARFSGSGSGTDFTLTISSLEPEDFAVYYCQQRSNWPITFGQGTNLEIKRTVAAPSVFIFPPSDEQLKSGTASVVCLLNNFYPREAKVQWKVDNALQSGNSQESVTEQDSKDSTYSLSSTLTLSKADYEKHKVYACEVTHQGLSSPVTKSFNRGEC | – | – | 0.793 | 0.274 | 2.64e-06 | – | 0.00046 | 579000 | 0.125 | 0.994 | 2.68e-06 | 3300 | 7.46e-05 | 598000 | 0.043 | 0.036 | – | –
3 | NTLAV2(hG1TM) (bispecific antibody, human IgG1, kappa, IgG-scFv (Morrison format)) heavy: QVQLVQSGAEVVKPGASVKVSCKASGYSFTGYTMNWVRQAPGQNLEWIGLINPYNAGTSYNQKFQGKVTLTVDKSTSTAYMELSSLRSEDTAVYYCARSEYRYGGDYFDYWGQGTTLTVSSASTKGPSVFPLAPSSKSTSGGTAALGCLVKDYFPEPVTVSWNSGALTSGVHTFPAVLQSSGLYSLSSVVTVPSSSLGTQTYICNVNHKPSNTKVDKKV[letters of human IgG1 Fc with L234A L235A G237A (EU numbers) omitted]GGGGSGGGGSGGGGSGGGGSQVQLQQWGAGLLKPSETLSLTCAVYGGSISDYYWNWIRQPPGKCLEWIGEINYRGTTNSNPSLKSRVTLSLDTSKNQFSLKLRSVTAADTAVYYCAFGYSDYEYDWFDPWGQGTLVTVSSGGGGSGGGGSGGGGSGGGGSEIVLTQSPATLSLSPGERATLSCRASQTISSYLAWYQQKPGQAPRLLIYDASNRATGIPARFSGSGSGTDFTLTISSLEPEDFAVYYCQQRSNWPITFGCGTNLEIK light: DIVMTQSPSSLAVSVGERVTISCKSSQSLLNSSNQKNYLAWYQQKPGQAPKLLIYFASTRESGVPDRFSGSGSGTDFTLTISSLQAEDVAVYYCQQHYDTPYTFGGGTKLEIKRTVAAPSVFIFPPSDEQLKSGTASVVCLLNNFYPREAKVQWKVDNALQSGNSQESVTEQDSKDSTYSLSSTLTLSKADYEKHKVYACEVTHQGLSSPVTKSFNRGEC | 0.173 | 0.037 | 0.408 | 0.201 | 3.22e-06 | 1230 | 0.000137 | 335000 | 1.23 | 0.814 | 3.08e-06 | 2470 | 0.000535 | 436000 | – | – | 0.94 | 98.2
